# PubChem BioAssay AID1508642 (National Center for Advancing Translational Sciences (NCATS), 2021)
# Out of some 43,000 compounds screened, about 200 (0.47%) were called active. About 12% were inconclusive and are not listed. Calls come from the whole dose curve; as a rule, active = well fitted cell-killing curve with a large enough effect; inconclusive = small, poorly fitted or top-dose-only effect, or effect the other way; inactive = flat fitted curve, though single readings scatter. This is one part of the list.
# Assay: Cell viability qHTS assay in S16 Pmp22-F2sN cells; note: nearly all actives have a fitted effect of over 65% in size
# Conditions: S16 Pmp22-F2sN Schwann cells viability, CellTiter-Glo, 24 h; series mostly up to 57.5 µM; activity change, negative = cytotoxicity: at the top concentration
# Procedure, shortened: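 Viability was measured by CellTiter-Glo luminescence (15 min, room temperature). This followed 24 h at 37 °C of compound exposure (23 nL pin transfer) in S16 Pmp22-F2sN Schwann cells, 500-1,000 per well.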
# % is set by controls: 0 for no effect and ±100 for the full control effect; potency is the fitted concentration of half-maximal effect.
SMILES,"activity change, negative = cytotoxicity",Potency
O=C(NCc1cccnc1)c1nn(-c2ccc(Cl)cc2)nc1CO,inactive: -6.27%,
COc1cc(Cl)c(C)cc1Nc1nc2ccccc2c2nnc(C)n12,inactive: 5.58%,
COc1ccc(C2CC(=O)N3CN(C4CCCCC4)CSC3=C2C#N)c(OC)c1 (stereo not drawn),inactive: 6.68%,
O=C(NC1CC(=O)N(c2ccc(F)cc2)C1)c1ccco1 (stereo not drawn),inactive: 10.5%,
COc1ccccc1C1CC(=O)NC(C)=C1C(=O)OC1CCCCCC1 (stereo not drawn),inactive: 5.45%,
COc1ccc(Nc2ncc3c(n2)CCN(Cc2ccccc2C)C3)c(OC)c1,inactive: 4.99%,
Cc1nn2c(=O)cc(COC(=O)c3ccc(NC(=O)COc4ccc(C)c(C)c4)cc3)nc2s1,inactive: -0.137%,
O=c1n(Cc2ccccc2Cl)c2ccccc2c2nc(-c3ccccc3)nn12,inactive: 2.36%,
CC(C)NC(=O)c1ccc(Cn2c(SCC(N)=O)nc3ccccc3c2=O)cc1,inactive: 0.633%,
CCOc1ccc(C2CC(=O)Nc3nc(SCc4ccccc4C)[nH]c(=O)c32)cc1OC (stereo not drawn),inactive: -10%,
Cc1ccc(CCNC(=O)c2ccc3nc(N4CCC(C)CC4)sc3c2)cc1,inactive: 20.5%,
COC(=O)C(C)Sc1ccc2nnc(CCNS(=O)(=O)c3ccc(C)cc3)n2n1 (stereo not drawn),inactive: 4.47%,
Cc1ccc(C)c(NC(=O)n2ncc3cc(Cl)ccc32)c1,inactive: 5.23%,
Cc1ncc(CO)c2c1Oc1nc(-c3ccccc3Cl)nc(SCc3ccccc3F)c1C2,inactive: -29.2%,
COCCCNC(=O)Cn1cnc2sc(C)c(S(=O)(=O)N3CCC(C)CC3)c2c1=O,inactive: -3.33%,
O=C(NCc1ccccc1)c1ccc(NC(=O)N2CC3CCCN3c3ccccc32)cc1 (stereo not drawn),inactive: 8.07%,
Cn1c(=O)oc2cc(S(=O)(=O)CCC(=O)N3CCN(c4cccc(Cl)c4)CC3)ccc21,inactive: -0.23%,
CCNC(=O)C1CCN(S(=O)(=O)c2ccc3c(c2)CCCN3C(C)=O)CC1,inactive: 1.51%,
CCOc1cc(C(=O)Nc2ccc(-c3cn4cccnc4n3)cc2)cc(OCC)c1OCC,inactive: 10%,
Cc1nc2ccccn2c(=O)c1NC(=O)c1ccc(F)c(F)c1,inactive: -1.76%,
Cc1cccc(NC(=O)C2CCCN2S(=O)(=O)c2ccc3nc(-c4ccccc4)[nH]c3c2)c1 (stereo not drawn),inactive: -22.1%,
Cc1ccc2c(c1)c1c(c(=O)n(-c3ccccc3)c(=O)n1CC(=O)NCC1CCCO1)n2C (stereo not drawn),inactive: 6.16%,
CCCCNC(=O)CCCCCn1c(=O)[nH]c2ccccc2c1=O,inactive: -2.82%,
Cc1ccc(S(=O)(=O)c2nnn3c2nc(NCc2ccc4c(c2)OCO4)c2sccc23)cc1C,inactive: 4.74%,
Cc1ccc(C)c(N2CCN(S(=O)(=O)c3cc(C(=O)Nc4ccc(Oc5ccccc5)cc4)ccc3F)CC2)c1,inactive: -19.9%,

SMILES,"activity change, negative = cytotoxicity",Potency
Cc1ccc(NC(=O)CN2C(=O)c3cccnc3Oc3ccc(Cl)cc32)cc1,inactive: 0.0976%,
Cc1ccccc1OCCSc1nc2ccc(NC(=O)c3cccc(F)c3)cc2s1,inactive: 1.08%,
COc1cc2ncc3c(-c4ccc(C)cc4)nn(-c4ccc(F)cc4F)c3c2cc1OC,inactive: -22.9%,
COc1ccc(Cn2ccnc2SCC(=O)Nc2nc3ccccc3s2)cc1,inactive: -7.67%,
COc1ccc(NC(=O)c2cc3c(s2)-c2c(C)cccc2OC3)cc1Cl,,active: 28.2 µM
CC(=O)c1ccc(NC(=O)c2ccc3c(c2)N(Cc2cccc(Cl)c2)C(=O)c2ccccc2S3=O)cc1 (stereo not drawn),inactive: 6.93%,
Cc1ccccc1-c1nc(CN2CCC(C(=O)NCc3ccc(F)cc3)CC2)c(C)o1,inactive: -1.45%,
CCOC(=O)c1c(C)n(-c2ccccc2)c2ccc(OC(=O)COc3ccc(Cl)cc3)cc12,inactive: -0.925%,
Cc1ccn2c(Nc3ccc4c(c3)OCCO4)c(-c3ccc(C)o3)nc2c1,inactive: -23.2%,
Cc1cc(Nc2ccccc2C)n2nc(Cc3ccc(Cl)cc3)nc2n1,inactive: 11.6%,
Cc1c(C(=O)NCc2ccccc2Cl)sc2ncnc(N(C)C3CCCCC3)c12,inactive: -16.7%,
COc1ccc(-c2cn3nc(N4CCCC(C(=O)NCc5ccc(Cl)cc5)C4)sc3n2)cc1 (stereo not drawn),inactive: 7.94%,
Cc1ccc(CCNC(=O)C2CCCN(c3nnc(C)c4c(C)n(-c5ccccc5)nc34)C2)cc1 (stereo not drawn),inactive: -3.07%,
CC1=C(C(=O)NCc2ccccc2F)C2(CCCCC2)OC1=O,inactive: -9.5%,
CC1=C(c2ccc(F)cc2)S(=O)(=O)N=C1N1CCC(C(=O)NCCc2cccc(C)c2)CC1,inactive: -1.72%,
COc1cccc(-c2nc(CS(=O)(=O)CC(=O)NCc3cccc(Cl)c3)c(C)o2)c1,inactive: 3.06%,
Cc1ccc(CSc2ncc(Cl)c(C(=O)Nc3nnc(C)s3)n2)cc1,inactive: -0.768%,
O=C(Nc1ccccc1Cl)N1CCC(CN2CCCC2)CC1,inactive: 6.26%,
Cc1ccc(NC(=O)CC2Oc3ccccc3NC2=O)cc1C (stereo not drawn),inactive: -5.53%,
COc1ccc(-c2cnnn2-c2ccc(NC(=O)c3ccccc3OC)cc2)cc1,inactive: -9.07%,
Cc1c(C(=O)NCc2cccc(Cl)c2)sc2nc3n(c(=O)c12)CCCC3,inactive: -7.19%,
COc1ccc(CCNC(=O)CN2C(=O)COc3ccc(S(=O)(=O)N4CCCC4)cc32)c(OC)c1,inactive: 7.34%,
COc1ccc(-c2nc3sc(CCNC(=O)C(=O)Nc4cccc(NC(C)=O)c4)c(C)n3n2)cc1,inactive: -0.618%,
Nc1nn(-c2ccccc2)nc1C(=O)OCc1ccc(Cl)cc1,inactive: 4.09%,
Cn1c(=O)n(Cc2c(F)cccc2Cl)c(=O)c2c1nc1n2CCN1c1ccc(F)cc1,inactive: 15.5%,

SMILES,"activity change, negative = cytotoxicity",Potency
Cc1ccc(Cn2c(=O)n(Cc3ccc(C(=O)NC4CCN(Cc5ccccc5)CC4)cc3)c(=O)c3ccccc32)cc1,inactive: 16.7%,
CCc1cccc(NC(=O)C2CCCN2S(=O)(=O)c2ccc3nc(-c4ccccc4)[nH]c3c2)c1 (stereo not drawn),inactive: -4.94%,
CC(=O)c1ccc(NC(=O)CCn2cccn2)cc1,inactive: 8.27%,
Cc1ccc(-n2c(C)nc3c(cnn3-c3ccccc3)c2=O)cc1,inactive: 19.7%,
CCc1ccc(CNC(=O)c2cccc(-n3c(C)nc4cccnc43)c2)cc1,inactive: -29.5%,
CCCc1ccc(OCc2ccc(C(=O)Nc3ccccc3C(=O)OC)o2)cc1,inactive: 6.06%,
CCc1ccc(NC(=O)Cn2c(=O)n(-c3cccc(OC)c3)c(=O)c3c(C)c(C(=O)N(C)C)sc32)cc1,inactive: 3.66%,
Cc1ccc2oc(C(=O)N3CCC(c4nc5ccccc5s4)CC3)c(C)c2c1,inactive: 4.62%,
CN1C(=O)Cc2cc(S(=O)(=O)NCc3ccccc3Cl)ccc21,inactive: -7.34%,
O=C(c1ccc(Br)cc1)N(Cc1ccco1)c1ccccn1,inactive: 10.8%,
Cc1ccc(C)c(S(=O)(=O)c2nnn3c2nc(NC2CCCC2)c2sccc23)c1,inactive: -29.5%,
CCOc1c(CNCCSc2nnnn2C)cccc1OC,inactive: 12.6%,
COc1ccc(OC)c([C@@H]2Nc3ccc(C(=O)O)cc3[C@@H]3C=CC[C@@H]32)c1,inactive: -6.26%,
CCc1cccc(NC(=O)c2cc3c(=O)oc4ccc(C)cc4c3s2)c1,inactive: 4.77%,
COc1ccc(CNC(=O)C(CC(C)C)NS(=O)(=O)c2ccc3c(c2)oc(=O)n3C)cc1 (stereo not drawn),inactive: 3.28%,
Cc1ccc(S(=O)(=O)c2cn(Cc3ccccc3)c3cc(N4CCCC4)c(F)cc3c2=O)c(C)c1,inactive: -16.3%,
CSc1nnc(NC(=O)c2cc(=O)c3cc(C)c(C)cc3o2)s1,inactive: 2.51%,
CC1CCc2c(sc3nnn(Cc4ccccc4Cl)c(=O)c23)C1 (stereo not drawn),inactive: 2.63%,
CCOc1ccc(S(=O)(=O)c2cc3cccc(OCC)c3oc2=O)cc1,inactive: 8.3%,
CCc1ccccc1N(C)C(=O)c1nn(-c2ccc(OC)cc2)c(=O)c2c1c1ccccc1n2C,inactive: -4.46%,
Cc1cccc(NC(=O)c2ccc3oc(=O)c(S(=O)(=O)c4ccc(F)cc4)cc3c2)c1C,inactive: 2.78%,
CC(C)NC(=O)CSc1cn(CC(=O)N2CCCCCC2)c2ccccc12,inactive: 4.06%,
Cc1ccc(-c2nnc3c4ccccc4c(-c4ccccc4)nn23)cc1,inactive: 6.71%,
CCOc1ccccc1NCc1nnc2n1CCCCC2,inactive: 4.11%,
COc1ccc(N2CCN(C(=O)c3cnc(N4CCOCC4)c4ccccc34)CC2)cc1,inactive: -10.8%,

SMILES,"activity change, negative = cytotoxicity",Potency
CCOc1ccccc1Oc1ncnc2c1oc1ccccc12,inactive: -18.2%,
CC1CCC(NC(=O)c2ccc3c(c2)N(Cc2ccccc2F)C(=O)c2ccccc2S3(=O)=O)CC1 (stereo not drawn),inactive: 1.69%,
CCOc1ccccc1CNCc1c(C(=O)O)n(Cc2ccccc2)c2cc(OC)ccc12,inactive: -0.0154%,
CCOc1ccccc1C1C(C(=O)Nc2ccccc2)=C(C)Nc2nc(-c3ccccc3)nn21 (stereo not drawn),inactive: -5.36%,
COc1ccccc1OCc1nc2ccccc2n1Cc1ccccc1,inactive: 8.11%,
Cc1cccc(N2CCN(Cc3nnc(-c4cccc(Br)c4)o3)CC2)c1C,inactive: -11.4%,
CCc1ccc(-c2nc(CS(=O)CC(=O)NCc3ccc(F)cc3)c(C)o2)cc1 (stereo not drawn),inactive: 5.84%,
Cc1ccc(Cl)cc1NC(=O)CN1C(=O)c2ccccc2Sc2ncccc21,inactive: 2.8%,
Cc1ccc(CNS(=O)(=O)c2c(C)nc3sc(C)cn3c2=O)cc1,inactive: 1.34%,
CCCn1cnc2cc(NC(=O)c3cc(OC)c(OC)c(OC)c3)ccc21,inactive: 0.369%,
COc1ccccc1NC(=O)Cn1c(=O)oc2cc(S(=O)(=O)NCc3ccccc3)ccc21,inactive: 9.43%,
CCCOC(=O)c1cccc(NC(=O)CSc2nnc3cc(C)c4ccccc4n23)c1,inactive: 2.96%,
Cc1c(Cl)cccc1NC(=O)Cn1c(=O)cc(C)c2c(C)nn(-c3cccc(F)c3)c21,inactive: -1.34%,
COc1ccc(NC(=O)c2cc(-c3ccc(F)cc3)no2)cc1OC,inactive: -3.23%,
COc1ccccc1Cc1nc2ccccc2nc1SCC(=O)Nc1c(C)cccc1C,inactive: 17.7%,
O=C(Cn1ncn2cccc2c1=O)NCc1cccc(Br)c1,inactive: -5.3%,
COc1ccc(N(CC(C)C)S(=O)(=O)c2nnc(NC(=O)c3ccco3)s2)cc1,inactive: -0.502%,
CCN(C(=O)CCS(=O)(=O)c1cc2c(cc1C)NC(=O)CO2)c1cccc(C)c1,inactive: 15%,
CCn1c(C)c(C)c2cc(C(=O)N3CCN(c4ccccc4)CC3)ccc21,inactive: 5.05%,
CN(C)CCN(Cc1ccccc1)S(=O)(=O)c1csc(C(N)=O)c1,inactive: -21.7%,
Cc1cc(NC(=O)c2ccco2)cc(-c2nc3ccccc3o2)c1O,inactive: 3.71%,
CCCNC(=O)Cn1nc(-c2ccc(C)cc2)c2cnc3ccc(CC)cc3c21,inactive: 8.43%,
COc1ccccc1C(=O)NCC(c1ccc(N(C)C)cc1)N1CCc2ccccc21 (stereo not drawn),inactive: 8.47%,
